From ChEMBL document CHEMBL1201862, “PubChem BioAssay data set” (2004) come the findings set out here.

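Five compound concentrations were applied to cells in 96-well plates for 48 hours; endpoints were derived by simple linear interpolation of the resulting dose-response curve. GI50: concentration for 50% inhibition of growth.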 Active and inactive are the calls of the source. No stated cut-off is given here; in the data, active = GI50 up to about 1.1 µM and inactive = higher.

The subject of the assay is NCI-H322M. Briefly: NCI-60 cell line screen, 48 h.
Take `CNC(=O)OCc1nc(SC(C)C)n(C)c1COC(=O)NC`: the GI50 was inactive: > 100 µM. Under `O=C1CCCCC1S(=O)(=O)c1ccccc1` (stereo not drawn) stands inactive: > 100 µM. For `NCCNC(=S)S` the value was inactive: > 100 µM. Under `Clc1ccc(CSCc2ccc(Cl)cc2Cl)c(Cl)c1` stands inactive: > 100 µM.

`Cc1ncc(CO)c(/C=N/CCCCCC/N=C/c2c(CO)cnc(C)c2O)c1O`: the GI50 was inactive: > 56.9 µM.

Turning to `CSc1nc(Cl)c2c(n1)Sc1nc3ccccc3n1N=C2`, the GI50 is inactive: > 100 µM.

As to `CN1C(=O)C(=CNc2ccc(Cl)cc2Cl)C(=O)N(C)C1=O`, the GI50 is inactive: > 100 µM. On to `CN(C)Cc1cc(C(C)(C)C)cc(CNC2CCCCC2)c1O`, for which the GI50 is inactive: 18 µM.

Turning to `Oc1ccc(Br)cc1/C=N/c1ccc(/N=C/c2cc(Br)ccc2O)cc1`, the GI50 is inactive: > 100 µM. Turning to `Cc1ccc(-c2nc3ccccc3c(=O)n2NCC2(O)OCC(O)C(O)C2O)cc1` (stereo not drawn), the GI50 was inactive: > 100 µM. For `Cc1ccc(NC(=O)COC(=O)c2cccc3c(=O)c4ccccc4[nH]c23)cc1` the value was inactive: 44 µM.

On to `COC1OC(C)C(OC(=O)C(C)(C)C)C(OS(=O)(=O)c2ccc(C)cc2)C1OS(=O)(=O)c1ccc(C)cc1` (stereo not drawn), for which the GI50 was inactive: > 100 µM.

`Cc1cc(-c2nc3ccccc3s2)ccc1NC(=O)[C@@H](N)CCCCN`: the GI50 was inactive: 10.7 µM. For `CCCCOC(=O)C1CN2C(=NC1(C(F)(F)F)C(F)(F)F)Sc1ccccc12` (stereo not drawn), the GI50 is inactive: 90.6 µM. For `C/C(=N\N(C)C)C(CN1CCCCC1)C(c1ccccc1)c1c(O)c2ccccc2oc1=O` (stereo not drawn) the value was inactive: > 100 µM. Consider `O=C(COc1ccc(OCC(=O)N2C(=O)CC/C2=N\c2ccc(Cl)cc2)cc1)N1C(=O)CS/C1=N\c1ccc(Cl)cc1`, for which the GI50 is inactive: > 100 µM.

For the compound `COc1cc([C@@H]2c3cc4c(cc3[C@@H](NCc3cccc(C#N)c3)C3COC(=O)[C@@H]32)OCO4)cc(OC)c1O` (stereo partly drawn), the GI50 was inactive: 13.9 µM. On to `CCOP(=O)(OCC)/C(C#N)=C/c1cccn1C`, for which the GI50 is inactive: > 100 µM. Under `c1ccc2c(c1)nnn2C1CCCCO1` (stereo not drawn) stands inactive: > 100 µM; under `COc1cc(S(=O)(=O)Nc2nc(-c3ccc(N4C(=O)CSC4c4cccs4)cc3)cs2)ccc1Cl` (stereo not drawn), inactive: > 100 µM; under `O=C1CSC(c2ccccc2[N+](=O)[O-])N1c1ccc(-c2ccc(-n3c(-c4ccccc4)nc4ccccc4c3=O)cc2)cc1` (stereo not drawn), inactive: > 100 µM. For `CCOC(=O)c1sc2c(c1OC(=O)c1ccccc1)c(=O)n(-c1ccccc1)c(=S)n2-c1ccccc1` the value was inactive: 94.4 µM; for `N#C/C(=C\c1ccccc1)C(=O)Nc1nnc(-c2ccccc2)o1`, inactive: 42.7 µM. Under `CC(=O)C1=CN=C2C(=O)N(c3ccccc3)N(C)C12C` (stereo not drawn) stands inactive: > 100 µM; under `Cn1c(-c2ccc(/N=N/Nc3ccc(-c4n[nH]c(=S)n4C)cc3)cc2)n[nH]c1=S`, inactive: 42.8 µM. `NNc1nc2ccccc2c(=O)n1NC(=O)C(=O)Nc1cccc(C(F)(F)F)c1`: the GI50 is inactive: > 100 µM. Under `COc1cc2c3c(cc(Cl)nc3c1OC)C(O)(CC(C)=O)C(=O)N2` (stereo not drawn) stands inactive: > 100 µM; under `Nc1ncnc2c1ncn2C1CCC(COS(N)(=O)=O)C1` (stereo not drawn), inactive: > 100 µM. With `C1CCN(C2OC3C(COC3N3CCCCC3)OC2OC2CCO[C@@H]2N2CCCCC2)CC1` (stereo partly drawn), the GI50 was inactive: > 100 µM. Regarding `C=CN1CCN(c2ccccc2)P1(=O)Oc1ccccc1` (stereo not drawn), the GI50 is inactive: > 100 µM.

Consider `Cc1cc(Br)cc(C)c1NC(=O)C(=O)Nn1c(S)nc2ccccc2c1=O`, for which the GI50 was inactive: > 100 µM. For `O=C1CCCCC/C1=C\c1ccc([N+](=O)[O-])cc1` the value was inactive: 33 µM; for `Cc1cc(C)c2c(c1)C1=NCCN1C2(O)c1ccc(Cl)cc1` (stereo not drawn), inactive: 4.5 µM.
